Measured values taken from PubChem BioAssay AID602233 (National Center for Advancing Translational Sciences (NCATS), 2012).
Among all 380,000 compounds or so, about 170 (0.045%) were called active. Inconclusive means that the source gave no clear call. Such entries were picked first, then a sample of the others. Calls follow the shape of the dose curve; as a rule, active = well fitted inhibition curve with a large enough effect; inconclusive = small, poorly fitted or top-dose-only effect; inactive = no such curve, though single readings can be large or run the other way. Potencies of inconclusive entries are left out as doubtful fits.
Also: nearly all actives have a fitted effect of over 60% in size.
Potency is read from the fitted curve at half-maximal effect; tags tell the direction and shape of the fitted curve.

What follows are compounds tested against Phosphoglycerate kinase, glycosomal (Trypanosoma brucei brucei) (UniProt P07378) (assay: qHTS Assay to Find Inhibitors of Phosphoglycerate Kinase). Details: PGK/GAPDH coupled, Kinase-Glo luminescence, 60 min; series mostly up to 57.5 µM.
Method in brief: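 Luminescent ATP detection (Kinase-Glo Plus) follows a 60-minute room-temperature incubation, with wells lacking PGK as controls. Buffer: 100 mM TEA (pH 7.6), 5 mM MgCl2, 0.01% Tween-20. Coupling enzyme GAPDH (100 nM final) supplies unstable 1,3-BPG in-well.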
In the case of `CCCc1ccc(S(=O)(=O)N2CCN(C(C)C(=O)NCc3ccc(OC)cc3)CC2)cc1` (configuration not stated), the Potency is reported as “inactive”. In the case of `CC(=O)c1ccc(NC(=S)N2CCN(CCO)CC2)cc1`, the Potency is reported as inconclusive [inhibitor, single point]. With `NCCCn1c(C(=O)c2cc(Cl)c(N)c(Cl)c2)c2ccc(C(F)(F)F)cc2[n+]1[O-]` the Potency was “inactive”. In the case of `Cc1cc(C=O)c(C)n1-c1cc(C(=O)O)cc(C(=O)O)c1`, the Potency is reported as active: 10 µM. For `Cc1occc1C(=O)N/N=C/c1ccc(-c2ccccc2)cc1`, the Potency was inconclusive [inhibitor, partial curve, poor fit]. With `Clc1ccc(-c2nnc3sc(-c4ccc(Br)o4)nn23)cc1` the Potency was “inactive”. In the case of `CCCn1c(N)c(N(CCOC)C(=O)c2cc(Cl)nc3ccccc23)c(=O)[nH]c1=O`, the Potency is reported as “inactive”. `Cc1ccc(NC(=O)CN2C(=O)S/C(=C/c3ccc(-c4cccc(C(=O)O)c4)o3)C2=O)cc1` was tested, and the Potency was active: 10 µM. With `CNC(=O)C1CCC(Cn2c(=O)c3sccc3n(CC(=O)N3CCC(C)CC3)c2=O)CC1` (configuration not stated) the Potency was inconclusive [inhibitor, partial curve, poor fit]. With `Cc1occc1C(=O)N/N=C/c1ccc(N(C)C)cc1` the Potency was active: 25.1 µM. For `COCCN1C(=O)C(=O)/C(=C(/O)c2cccc(OC)c2)C1c1ccco1` (configuration not stated), the Potency was inconclusive [inhibitor, partial curve, poor fit]. In the case of `COc1cc2c(cc1OC)CN(C(=S)Nc1cccc(Cl)c1C)CC2`, the Potency is reported as inconclusive [inhibitor, partial curve, poor fit]. In the case of `Clc1ccccc1Nc1nc2ccccc2o1`, the Potency is reported as inconclusive [inhibitor, partial curve]. In the case of `CCC(/C=C1\Sc2ccc(OC)cc2N1CC)=C\c1sc2ccc(OC)cc2[n+]1CCCS(=O)(=O)[O-]`, the Potency is reported as inconclusive [inhibitor, partial curve, poor fit]. `COc1ccc(N2Cc3cccc(C(=O)O)c3C2=O)cc1` was tested, and the Potency was inconclusive [inhibitor, partial curve, poor fit]. With `CC1(OC(=O)C2CCCC2)C(=O)C=C2C=C(c3ccsc3)OC=C2C1=O` (configuration not stated) the Potency was inconclusive [inhibitor, partial curve, poor fit]. With `C=C(C)C(=O)OCCCCCCOc1ccc(C(=O)O)cc1` the Potency was inconclusive [inhibitor, partial curve, poor fit]. In the case of `CCCCNC(=O)CCC(=O)NNc1nc2ccccc2c2nc(C)nn12`, the Potency is reported as “inactive”. `COc1ccccc1NC(=S)N(C(C)C)C(C)c1ccccn1` (configuration not stated) was tested, and the Potency was inconclusive [inhibitor, partial curve, poor fit]. In the case of `COc1ccc2c(c1)OC[C@H]1[C@H]2N2C(=O)c3ccc(C)cc3NC(=O)[C@@]2(C)[C@H]1c1ccccc1`, the Potency is reported as “inactive”. `O=C(N/N=C/c1ccc([N+](=O)[O-])o1)C1CC1` was tested, and the Potency was inconclusive [inhibitor, partial curve, poor fit]. With `CC(C)(C)NC(=S)N/N=C/c1cc(Br)c(O)c(Br)c1` the Potency was “inactive”. With `CCOC(=O)Cn1c2ccccc2c2nc3ccccc3nc21` the Potency was “inactive”. `CCOc1ccc(C2C(C(=O)Nc3ccccc3)=C(C)N=c3s/c(=C/c4cccc(OCC(=O)O)c4)c(=O)n32)cc1` (configuration not stated) was tested, and the Potency was “inactive”. In the case of `NC(=O)c1ccc[n+]([C@H]2O[C@@H](COP(=O)([O-])OP(=O)(O)OC[C@H]3O[C@@H](n4cnc5c(N)ncnc54)[C@H](O)[C@@H]3O)[C@H](O)[C@@H]2O)c1`, the Potency is reported as inconclusive [inhibitor, single point]. In the case of `CCCSC1=N/C(=C\C=C\c2ccco2)C(=O)S1`, the Potency is reported as inconclusive [inhibitor, partial curve, poor fit]. In the case of `Cc1ccccc1C(=O)NC1CCSC1=O` (configuration not stated), the Potency is reported as inconclusive [inhibitor, single point]. `COc1ccc(-c2ccc(SC)nn2)cc1` was tested, and the Potency was inconclusive [inhibitor, partial curve, poor fit]. For `COc1ccc(OC)c(NC(=O)COC(=O)/C=C/c2ccco2)c1`, the Potency was inconclusive [inhibitor, single point]. `O=C1Nc2ccccc2C(=O)C1(Cl)Cc1ccccc1` (configuration not stated) was tested, and the Potency was “inactive”. In the case of `CSc1ccc(C2C(C#N)=C(N)Oc3cc4c(cc32)OCO4)cc1` (configuration not stated), the Potency is reported as “inactive”. In the case of `COc1cc2c(cc1OC)C(=O)C(Br)CC2` (configuration not stated), the Potency is reported as inconclusive [inhibitor, single point]. With `O=C(CSc1nc2ccccc2nc1Cc1ccc(Cl)cc1)N1CCCCC1` the Potency was “inactive”. `Cc1ccc(S(=O)(=O)/N=C2/NC(=O)/C(=C\c3cc(Br)cc(Br)c3O)S2)cc1` was tested, and the Potency was inconclusive [inhibitor, partial curve, poor fit]. With `CNC(=O)c1cn(-c2ccc(Cl)cc2)c(=O)c2ccccc12` the Potency was “inactive”. `CSc1ccc(/C=N/Nc2cccc(C(=O)O)c2)cc1` was tested, and the Potency was inconclusive [inhibitor, partial curve, poor fit]. For `COc1ccc(NC(=S)N2CCc3cc(OC)c(OC)cc3C2)cc1`, the Potency was inconclusive [inhibitor, single point]. For `Cc1ccc(C(=O)O)cc1-c1ccc(/C=C2\SC(=O)N(CC(=O)Nc3ccc4c(c3)OCO4)C2=O)o1`, the Potency was inconclusive [inhibitor, full curve, poor fit]. In the case of `CC1(C)Cc2c(C#N)c(NCC3CCCO3)nc(-c3ccco3)c2CO1` (configuration not stated), the Potency is reported as inconclusive [inhibitor, single point]. For `Cc1ccc(OCc2ccoc2C(=O)O)cc1C`, the Potency was inconclusive [inhibitor, single point]. `CC/C(=N\Nc1ccnc2cc(Cl)ccc12)c1ccc(O)cc1` was tested, and the Potency was “inactive”. `COc1cccc(C2=C(C(C)=O)Sc3nnc(C4CCCCC4)n3N2C(C)=O)c1` was tested, and the Potency was “inactive”. With `Cc1noc(/C=C/c2ccc(-c3ccccc3Cl)o2)c1[N+](=O)[O-]` the Potency was inconclusive [inhibitor, partial curve, poor fit]. `C=CCOc1ccc(C=NNc2ccc(S(=O)(=O)Nc3ccccc3C(=O)O)cc2[N+](=O)[O-])cc1OC` was tested, and the Potency was inconclusive [inhibitor, partial curve, poor fit]. For `CN(C)c1ccc(/C=C/c2ccc3ccccc3n2)cc1`, the Potency was inconclusive [inhibitor, partial curve]. For `N#C/C(=C\c1ccc(O)c(O)c1)C(=O)Nc1cccc2ncccc12`, the Potency was inconclusive [inhibitor, single point]. In the case of `Clc1ccc(Cn2c(/C=C/c3ccco3)nc3ccccc32)cc1`, the Potency is reported as “inactive”. In the case of `CCOc1ccc(Br)cc1CN(CC)CC`, the Potency is reported as “inactive”. `CC(=O)Oc1cc2cccc(OC(C)=O)c(=O)c2c(OC(C)=O)c1OC(C)=O` was tested, and the Potency was inconclusive [inhibitor, partial curve]. With `Cc1ccccc1NC(=O)CSc1nnc(Cc2ccccc2)c(=O)n1N` the Potency was “inactive”. `Cc1ccc(NC(=O)c2ccoc2C)cc1C` was tested, and the Potency was inconclusive [inhibitor, partial curve, poor fit]. In the case of `O=C(CSc1nc2sc3c(c2c(=O)n1-c1ccccc1)CCCC3)N/N=C/c1ccccc1C(=O)O`, the Potency is reported as inconclusive [inhibitor, partial curve]. `CCN(CC)CCNC(=O)C1CCN(c2nn3cc(-c4ccc(F)cc4)nc3s2)CC1` was tested, and the Potency was inconclusive [inhibitor, single point]. `O=C(CN1CCC2(CC1)OCCO2)c1ccc2cc[nH]c2c1` was tested, and the Potency was inconclusive [inhibitor, single point]. For `CC(C)=CCc1cc(-c2oc3cc(O)cc(O)c3c(=O)c2O)ccc1O`, the Potency was inconclusive [inhibitor, partial curve, poor fit]. In the case of `COC(=O)c1nn(-c2ccc3c(c2)CCN3C(C)=O)cc1O`, the Potency is reported as inconclusive [inhibitor, partial curve, poor fit]. With `Brc1ccc2nc(-c3c[nH]c4ccccc34)cn2c1` the Potency was inconclusive [inhibitor, single point]. `N#C/C(=C/c1ccc(O)c(O)c1)c1nc2ccccc2[nH]1` was tested, and the Potency was inconclusive [inhibitor, partial curve, poor fit]. `CCNc1ccc(Br)cc(C(=O)/C=C/c2ccc(Cl)cc2)c1=O` was tested, and the Potency was “inactive”. `Cc1ccccc1C1=C/C(=C(\SS/C(C(=O)c2ccc(OCC(=O)O)c(Cl)c2Cl)=C2\C=C(c3ccccc3C)SS2)C(=O)c2ccc(OCC(=O)O)c(Cl)c2Cl)SS1` was tested, and the Potency was inconclusive [inhibitor, single point]. With `O=C(CSc1nc(NS(=O)(=O)c2ccccc2)cc(=O)[nH]1)Nc1ccc(F)cc1` the Potency was inconclusive [inhibitor, single point]. In the case of `Cc1ccc(NC(=O)CN2C(=O)S/C(=C\c3cccn3-c3cccc(C(=O)O)c3)C2=O)c(C)c1`, the Potency is reported as inconclusive [inhibitor, partial curve, poor fit]. With `COCCN(C(=S)Nc1c(C)cc(C)cc1C)C(C)c1cccnc1` (configuration not stated) the Potency was “inactive”. For `CN1C(=CC=C2C=C(I)C(=O)C(I)=C2)C(C)(C)c2ccccc21`, the Potency was inconclusive [inhibitor, full curve, poor fit]. With `CC(=C/c1ccccc1)/C=N/N1CCN(Cc2ccc(C)cc2)CC1` the Potency was inconclusive [inhibitor, single point]. For `Cn1ncc(Br)c1C(=O)NC12CC3CC(CC(C3)C1)C2`, the Potency was “inactive”. `Cc1nnc(SCC2=C(C(=O)O)N3C(=O)C(NC(=O)Cn4nc(C(F)F)cc4C)C3SC2)s1` (configuration not stated) was tested, and the Potency was inconclusive [inhibitor, partial curve, poor fit].
